Like-named read-outs stand apart in the source and are kept apart here. No constants are given. Whether binding was seen depends on the method and setting. For some assays here: In cells and extracts the contact can be indirect. Some entries that bind do so weakly or less than the wild type. Sequences can lack the tags named with a protein.
T1: His tag-fused MYLIP expressed in 293T cells (UniProt Q8WY64)
T1 sequence: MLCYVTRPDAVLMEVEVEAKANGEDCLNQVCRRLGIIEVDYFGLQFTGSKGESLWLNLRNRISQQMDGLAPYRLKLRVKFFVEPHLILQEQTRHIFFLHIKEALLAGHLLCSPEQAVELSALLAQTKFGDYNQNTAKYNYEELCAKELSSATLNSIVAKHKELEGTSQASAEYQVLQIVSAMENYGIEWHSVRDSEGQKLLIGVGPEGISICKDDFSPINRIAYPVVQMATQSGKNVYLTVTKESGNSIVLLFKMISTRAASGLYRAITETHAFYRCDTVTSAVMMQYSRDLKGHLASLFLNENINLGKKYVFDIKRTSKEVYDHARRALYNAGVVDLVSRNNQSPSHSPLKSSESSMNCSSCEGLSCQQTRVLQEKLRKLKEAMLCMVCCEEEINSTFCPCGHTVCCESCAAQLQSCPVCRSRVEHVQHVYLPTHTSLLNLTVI

Protein sequences, listed by entry. Tags and fused reporters are not part of them. Lines headed by an entry give the natural chain unless they say otherwise; changes in a name come on top.
UniProt P51668: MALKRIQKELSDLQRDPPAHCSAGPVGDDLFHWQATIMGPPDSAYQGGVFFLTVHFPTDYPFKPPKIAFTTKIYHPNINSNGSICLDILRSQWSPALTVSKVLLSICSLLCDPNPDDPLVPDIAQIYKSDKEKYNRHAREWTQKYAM
UniProt P10275: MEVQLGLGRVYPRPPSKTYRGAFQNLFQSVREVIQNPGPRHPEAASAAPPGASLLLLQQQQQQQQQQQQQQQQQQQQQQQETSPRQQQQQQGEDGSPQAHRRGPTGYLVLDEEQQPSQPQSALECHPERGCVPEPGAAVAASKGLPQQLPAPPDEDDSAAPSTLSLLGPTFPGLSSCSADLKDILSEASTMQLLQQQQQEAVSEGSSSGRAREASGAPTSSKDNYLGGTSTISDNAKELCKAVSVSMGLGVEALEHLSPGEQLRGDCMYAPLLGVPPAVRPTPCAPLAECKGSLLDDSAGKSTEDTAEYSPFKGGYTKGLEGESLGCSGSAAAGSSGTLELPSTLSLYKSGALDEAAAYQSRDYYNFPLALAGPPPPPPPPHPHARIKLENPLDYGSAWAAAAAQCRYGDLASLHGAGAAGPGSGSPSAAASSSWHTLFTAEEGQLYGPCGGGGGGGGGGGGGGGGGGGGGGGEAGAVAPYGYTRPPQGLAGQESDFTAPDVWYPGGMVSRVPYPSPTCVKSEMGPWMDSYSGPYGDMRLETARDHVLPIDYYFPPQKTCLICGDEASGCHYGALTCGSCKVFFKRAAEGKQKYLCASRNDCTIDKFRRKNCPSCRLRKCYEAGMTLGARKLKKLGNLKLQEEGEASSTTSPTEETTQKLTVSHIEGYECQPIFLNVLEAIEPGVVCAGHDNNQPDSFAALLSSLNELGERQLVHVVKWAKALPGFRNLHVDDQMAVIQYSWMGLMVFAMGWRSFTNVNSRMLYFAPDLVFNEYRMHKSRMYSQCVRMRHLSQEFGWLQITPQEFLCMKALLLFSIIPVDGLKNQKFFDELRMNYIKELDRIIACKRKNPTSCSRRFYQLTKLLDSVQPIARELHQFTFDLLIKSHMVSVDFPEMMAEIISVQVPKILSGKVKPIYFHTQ

T2: recombinant GST-fused RING domain of MYLIP (344-445 a.a.) (UniProt Q8WY64)
T2 sequence: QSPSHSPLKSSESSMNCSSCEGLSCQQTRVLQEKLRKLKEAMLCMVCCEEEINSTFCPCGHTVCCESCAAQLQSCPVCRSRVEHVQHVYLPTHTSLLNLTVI


Legend:
[1] = molecular target: T1, His tag-fused MYLIP expressed in 293T cells; test: co-IP; 293T cells transfected with expression plasmids for 24 h; whole cell extracts incubated with anti-His beads (Dynabeads His-Tag Isolation and Pulldown) at 4 C for 2 h; bound proteins detected by immunoblotting (Figures 2C and 3E)
[2] = molecular target: T1, His tag-fused MYLIP expressed in 293T cells; test: as above; remark: listed apart in the source
[3] = molecular target: UBE2D1-His expressed in 293T cells (UniProt P51668); test: as above
[4] = molecular target: T2, recombinant GST-fused RING domain of MYLIP (344-445 a.a.); test: pull-down; GST-RING (8 ug) on Glutathione Sepharose beads with recombinant UBE2D-His (5 ug) or immunoprecipitated FLAG-CNPY2 (5 or 15 ug), 4 C, 30 min; 50 mM Tris-HCl pH 7.5, 150 mM NaCl, 5 mM EDTA, 0.5% NP40; immunoblotting; both purified

Row | binding [1] | binding [2] | binding [3] | binding [4] | Molecule
1 | no binding | – | – | – | FLAG tag-fused AR (AF-1, 1-673 a.a.) (from UniProt P10275 1-673) (domain or fragment)
2 | binds | – | – | – | FLAG tag-fused AR (AF-2, 555-920 a.a.) (from UniProt P10275 555-920) (domain or fragment)
3 | – | binds weakly | binds | binds weakly | FLAG-CNPY2 (Canopy FGF signaling regulator 2) (protein, UniProt Q9Y2B0 21-182) RRSQDLHCGACRALVDELEWEIAQVDPKKTIQMGSFRINPDGSQSVVEVPYARSEAHLTELLEEICDRMKEYGEQIDPSTHRKNYVRVVGRNGESSELDLQGIRIDSDISGTLKFACESIVEEYEDELIEFFSREADNVKDKLCSKRTDLCDHALHISHDEL

Source: paper PMC5915145, “CNPY2 inhibits MYLIP-mediated AR protein degradation in prostate cancer cells” (Oncotarget, 2018)
